Source: PMC3911953
Results are given in words; binding and its absence hold for the method and conditions named. In cells and extracts the contact can be indirect. Some results given as binding are weak or reduced against the parent protein; the word gives no strength. Sequences can lack the tags named with a protein. One block for each molecule: values may come before it.

The chains behind the UniProt entries cited, without tags or fusion partners. Where a name states a change or a piece, a line headed by the entry shows the natural chain unless it says otherwise. A line that says so, or that is headed by a name, gives the form on record, which may keep a tag or linker. Residues count along the entry.
UniProt Q9CZN4: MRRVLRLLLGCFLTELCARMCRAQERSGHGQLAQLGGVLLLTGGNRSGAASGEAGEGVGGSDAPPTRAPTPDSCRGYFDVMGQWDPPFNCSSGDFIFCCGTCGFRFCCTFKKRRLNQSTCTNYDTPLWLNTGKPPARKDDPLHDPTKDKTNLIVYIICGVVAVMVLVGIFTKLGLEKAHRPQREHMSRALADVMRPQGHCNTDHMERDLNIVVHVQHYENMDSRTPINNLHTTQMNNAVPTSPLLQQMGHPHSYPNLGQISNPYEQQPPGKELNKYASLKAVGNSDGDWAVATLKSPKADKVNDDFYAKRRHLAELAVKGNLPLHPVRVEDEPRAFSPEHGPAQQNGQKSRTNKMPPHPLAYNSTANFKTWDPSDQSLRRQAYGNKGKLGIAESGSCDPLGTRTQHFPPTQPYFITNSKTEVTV
HA-tagged Shisa9WT, full length: residues 24-424 of Q9CZN4
HA-tagged Shisa9ΔEVTV: residues 24-420 of Q9CZN4
UniProt Q925T6: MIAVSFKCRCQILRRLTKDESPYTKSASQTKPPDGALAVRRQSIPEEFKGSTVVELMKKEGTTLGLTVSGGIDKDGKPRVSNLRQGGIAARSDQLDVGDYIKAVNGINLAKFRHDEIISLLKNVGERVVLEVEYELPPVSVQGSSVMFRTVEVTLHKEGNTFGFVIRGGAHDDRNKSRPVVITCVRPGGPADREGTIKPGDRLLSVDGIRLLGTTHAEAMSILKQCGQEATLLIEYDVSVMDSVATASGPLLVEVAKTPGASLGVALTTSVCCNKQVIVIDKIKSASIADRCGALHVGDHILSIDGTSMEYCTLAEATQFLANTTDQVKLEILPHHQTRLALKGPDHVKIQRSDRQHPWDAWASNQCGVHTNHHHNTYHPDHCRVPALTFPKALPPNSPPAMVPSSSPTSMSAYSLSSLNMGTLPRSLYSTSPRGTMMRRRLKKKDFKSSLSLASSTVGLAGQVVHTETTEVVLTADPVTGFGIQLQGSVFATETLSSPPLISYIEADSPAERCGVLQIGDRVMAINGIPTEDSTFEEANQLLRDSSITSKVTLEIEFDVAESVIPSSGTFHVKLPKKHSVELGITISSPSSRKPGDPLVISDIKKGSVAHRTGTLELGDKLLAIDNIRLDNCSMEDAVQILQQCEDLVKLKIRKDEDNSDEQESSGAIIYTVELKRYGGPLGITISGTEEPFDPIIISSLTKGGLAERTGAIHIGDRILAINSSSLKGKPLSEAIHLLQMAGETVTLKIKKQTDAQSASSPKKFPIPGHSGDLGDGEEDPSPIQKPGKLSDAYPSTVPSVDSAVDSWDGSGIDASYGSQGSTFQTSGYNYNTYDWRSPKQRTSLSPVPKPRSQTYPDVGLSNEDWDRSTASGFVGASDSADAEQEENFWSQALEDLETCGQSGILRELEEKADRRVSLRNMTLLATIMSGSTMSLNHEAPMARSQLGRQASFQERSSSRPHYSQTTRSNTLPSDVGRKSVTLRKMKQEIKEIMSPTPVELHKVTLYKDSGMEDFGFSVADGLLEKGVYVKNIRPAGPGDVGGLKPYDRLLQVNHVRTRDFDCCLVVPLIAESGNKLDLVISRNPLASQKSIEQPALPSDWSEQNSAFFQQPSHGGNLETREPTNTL
UniProt Q62083: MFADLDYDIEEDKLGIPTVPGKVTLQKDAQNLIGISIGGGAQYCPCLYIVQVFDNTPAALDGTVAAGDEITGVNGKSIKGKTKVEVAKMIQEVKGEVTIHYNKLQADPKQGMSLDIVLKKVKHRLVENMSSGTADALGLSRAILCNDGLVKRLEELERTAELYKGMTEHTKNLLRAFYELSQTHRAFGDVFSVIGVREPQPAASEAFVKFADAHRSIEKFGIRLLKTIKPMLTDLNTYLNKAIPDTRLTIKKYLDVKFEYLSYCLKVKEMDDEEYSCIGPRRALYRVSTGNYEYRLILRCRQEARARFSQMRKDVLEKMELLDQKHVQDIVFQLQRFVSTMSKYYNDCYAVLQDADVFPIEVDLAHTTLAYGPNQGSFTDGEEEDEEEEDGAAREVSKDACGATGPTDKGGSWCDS

What was measured:
[1] = target: HA-tagged Shisa9ΔEVTV (mouse) (UniProt Q9CZN4); test: co-IP; HEK293T cells co-transfected with HA-Shisa9 (WT or ΔEVTV) and one V5-tagged interactor; lysis in 25 mM HEPES/NaOH pH 7.4, 150 mM NaCl with 1% DDM (1% Triton X-100 for PICK1); precipitation with anti-HA, blot with anti-V5
[2] = target: HA-tagged Shisa9WT, full length (mouse) (UniProt Q9CZN4); test: as above

B1: V5-tagged MPP5, full length (protein, UniProt Q9JLB2 1-675)
chain: MTTSYMNGHVTEESDSGIKNLDLASPEEYPKHREMAVDCPGDLGTRMMPVRRSAQLERIRQQQEDMRRRREEEGKKQELDLNSSMRLKKLAQIPPKTGIDNPIFDTEEGIVLESPHYAVNILDVEDLFSSLKHIQHTLVDSQSQEDISLLLQLVQNRDFQNAFKIHNAVTVHMSKASPPFPLIANVQDLVQEVQTVLKPVHQKEGQELTALLNAPHIQALLLAHDKVAEQEMQLEPITDERVYESIGHYGGETVKIVRIEKARDIPLGATVRNEMDSVIISRIVKGGAAEKSGLLHEGDEVLEINGIEIRGKDVNEVFDLLSDMHGTLTFVLIPSQQIKPPPAKETVIHVKAHFDYDPSDDPYVPCRELGLSFQKGDILHVISQEDPNWWQAYREGDEDNQPLAGLVPGKSFQQQREAMKQTIEEDKEPEKSGKLWCAKKNKKKRKKVLYNANKNDDYDNEEILTYEEMSLYHQPANRKRPIILIGPQNCGQNELRQRLMNKEKDRFASAVPHTTRNRRDHEVAGRDYHFVSRQAFEADIAAGKFIEHGEFEKNLYGTSIDSVRQVINSGKICLLSLRTQSLKTLRNSDLKPYIIFIAPPSQERLRALLAKEGKNPKPEELREIIEKTREMEQNNGHYFDTAIVNSDLDKAYQELLRLINKLDTEPQWVPSTWLR
binding [2]: no binding

B2: V5-tagged Lin7b, full length (protein, UniProt O88951 1-207)
chain: MAALVEPLGLERDVSRAVELLERLQRSGELPPQKLQALQRVLQSRFCSAIREVYEQLYDTLDITGSAEVRAHATAKATVAAFTASEGHAHPRVVELPKTDEGLGFNIMGGKEQNSPIYISRVIPGGVADRHGGLKRGDQLLSVNGVSVEGEHHEKAVELLKAAQGSVKLVVRYTPRVLEEMEARFEKMRSARRRQQHHSYTSLESRG
binding [1]: no binding
binding [2]: binds

B3: V5-tagged Dynlt3, full length (protein, UniProt P56387 1-116)
chain: MEGYQRPCDEVGFNADEAHNIVKECVDGVLGGNDYNENNINQWTASIVEQSITHLVKLGKAYKYIVTCAVVQRSPYGFHTASSCFWDTTSDGTCTIRWENRTMNCIVNVFAVAIVL
binding [2]: no binding

More lines, now with the values ahead:

binding [1]: no binding
binding [2]: binds
Molecule: V5-tagged GRIP1, full length (from UniProt Q925T6 1-1127)

binding [1]: no binding
binding [2]: binds
Molecule: V5-tagged PICK1, full length (from UniProt Q62083 1-416)
